Residue numbers refer to the chain shown, from its start. These are yes or no findings as the source states them, for the method shown. Binding seen in cells or lysates may run through a third protein. Some binding calls cover weakened binding; strength is not graded here. For part of these data: Where a sequence is shown, tags or fusion partners need not be part of it. Values belong to the molecule of their own block, whether it stands above or below them.
Assays:
[1] = molecular target: T1, RBM15, endogenous in MEG-01 cells (human (endogenous in MEG-01)) (UniProt Q96T37); experiment: co-IP; MEG-01 cells expressing inducible shPRMT1; immunoprecipitated with anti-RBM15 antibody, normal mouse serum as negative control; WB for endogenous SF3B1
T1 sequence: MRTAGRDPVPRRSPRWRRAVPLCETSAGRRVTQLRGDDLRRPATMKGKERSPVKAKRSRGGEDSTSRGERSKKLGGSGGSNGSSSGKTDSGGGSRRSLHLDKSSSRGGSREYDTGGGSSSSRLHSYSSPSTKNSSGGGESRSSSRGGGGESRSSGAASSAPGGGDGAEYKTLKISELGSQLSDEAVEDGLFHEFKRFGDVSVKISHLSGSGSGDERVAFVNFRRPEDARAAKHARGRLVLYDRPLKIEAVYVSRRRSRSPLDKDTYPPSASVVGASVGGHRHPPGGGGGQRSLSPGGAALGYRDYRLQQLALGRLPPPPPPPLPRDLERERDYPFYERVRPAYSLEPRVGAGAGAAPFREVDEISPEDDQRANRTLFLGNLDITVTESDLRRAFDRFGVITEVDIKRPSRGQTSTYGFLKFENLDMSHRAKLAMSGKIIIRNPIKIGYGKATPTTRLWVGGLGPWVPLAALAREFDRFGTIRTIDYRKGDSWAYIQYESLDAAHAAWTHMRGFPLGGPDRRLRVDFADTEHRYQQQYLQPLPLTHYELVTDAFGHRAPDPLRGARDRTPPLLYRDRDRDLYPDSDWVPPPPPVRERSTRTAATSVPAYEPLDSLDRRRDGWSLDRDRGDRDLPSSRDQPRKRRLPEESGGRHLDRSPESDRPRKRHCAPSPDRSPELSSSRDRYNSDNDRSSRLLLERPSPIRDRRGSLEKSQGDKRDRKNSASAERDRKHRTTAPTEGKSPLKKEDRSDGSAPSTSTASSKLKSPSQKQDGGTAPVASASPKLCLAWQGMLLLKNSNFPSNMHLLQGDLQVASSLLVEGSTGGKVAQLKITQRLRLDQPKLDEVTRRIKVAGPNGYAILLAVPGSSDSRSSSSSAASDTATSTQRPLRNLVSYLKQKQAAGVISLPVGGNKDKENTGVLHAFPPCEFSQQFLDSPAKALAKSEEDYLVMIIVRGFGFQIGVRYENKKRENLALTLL

Sequences of proteins named here, by UniProt entry; tags and fusion partners are left off.
UniProt O75533: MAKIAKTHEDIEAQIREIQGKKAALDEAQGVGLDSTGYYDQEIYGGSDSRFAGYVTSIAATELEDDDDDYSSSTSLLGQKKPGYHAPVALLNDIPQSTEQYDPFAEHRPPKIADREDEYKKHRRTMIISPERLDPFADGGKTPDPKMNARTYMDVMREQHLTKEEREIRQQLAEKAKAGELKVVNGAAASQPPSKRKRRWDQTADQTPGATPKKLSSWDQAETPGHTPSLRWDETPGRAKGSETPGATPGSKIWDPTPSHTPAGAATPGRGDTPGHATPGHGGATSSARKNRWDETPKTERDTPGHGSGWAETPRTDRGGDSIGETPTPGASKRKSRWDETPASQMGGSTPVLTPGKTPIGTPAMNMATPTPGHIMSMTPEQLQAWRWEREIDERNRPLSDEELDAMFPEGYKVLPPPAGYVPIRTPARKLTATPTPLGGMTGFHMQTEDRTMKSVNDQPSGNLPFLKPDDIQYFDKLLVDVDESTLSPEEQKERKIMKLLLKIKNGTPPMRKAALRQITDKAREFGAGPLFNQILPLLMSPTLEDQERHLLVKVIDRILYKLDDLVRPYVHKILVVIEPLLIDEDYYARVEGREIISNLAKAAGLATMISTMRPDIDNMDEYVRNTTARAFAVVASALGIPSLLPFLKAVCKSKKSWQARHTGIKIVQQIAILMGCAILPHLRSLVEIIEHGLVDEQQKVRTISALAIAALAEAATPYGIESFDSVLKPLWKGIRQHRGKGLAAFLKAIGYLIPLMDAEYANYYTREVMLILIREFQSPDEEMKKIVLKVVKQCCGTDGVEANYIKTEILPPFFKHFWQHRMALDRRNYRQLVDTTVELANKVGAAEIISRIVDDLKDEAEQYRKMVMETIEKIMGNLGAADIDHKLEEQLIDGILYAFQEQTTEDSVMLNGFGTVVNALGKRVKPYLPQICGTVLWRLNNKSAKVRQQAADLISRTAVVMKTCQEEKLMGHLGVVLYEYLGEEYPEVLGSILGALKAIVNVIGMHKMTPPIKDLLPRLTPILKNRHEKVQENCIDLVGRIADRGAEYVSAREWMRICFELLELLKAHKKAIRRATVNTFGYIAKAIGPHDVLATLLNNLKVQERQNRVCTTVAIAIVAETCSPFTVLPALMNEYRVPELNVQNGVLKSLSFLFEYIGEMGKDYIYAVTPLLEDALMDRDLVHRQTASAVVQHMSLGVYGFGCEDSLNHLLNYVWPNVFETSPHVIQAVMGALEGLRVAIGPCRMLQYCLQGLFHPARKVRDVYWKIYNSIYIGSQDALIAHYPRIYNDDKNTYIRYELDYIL

[2] = molecular target: T2, RBM15 R578K-Flag, MEG-01 stable cell line (human) (UniProt Q96T37); experiment: co-IP; MEG-01 stable cell lines expressing RBM15-Flag or RBM15 R578K-Flag, with or without DB75 treatment; immunoprecipitated with anti-Flag antibody; WB for SF3B1
T2 sequence: T1 sequence with R578K

[3] = molecular target: T3, RBM15-Flag (wild type), MEG-01 stable cell line (human) (UniProt Q96T37); experiment: as above
T3 sequence: T1 sequence

[4] = molecular target: T4, RBM15 R578K-Flag, expressed in 293T cells (human) (UniProt Q96T37); experiment: co-IP; 293T cells transfected with combinations of RBM15-Flag or R578K-Flag, PRMT1 and HA-CNOT4; RBM15-Flag affinity purified with anti-Flag; lysis buffer 20 mM Hepes pH 7.9, 150 mM NaCl, 1% NP40, with RNaseA 10 ug/ml, 4 C, 4 hr; WB
T4 sequence: T1 sequence with R578K

[5] = molecular target: T5, RBM15-Flag (wild type), expressed in 293T cells (human) (UniProt Q96T37); experiment: as above
T5 sequence: T1 sequence

[6] = molecular target: T6, RBM15 peptide dimethylated on R578 (Biotin-LLYRDRDR(ME2A)…) (human); experiment: pull-down; biotinylated RBM15 peptides (1 uM) on streptavidin beads incubated with MEG-01 whole cell extract overnight at 4 C; washed five times with 300 mM NaCl, 1 mM DTT, 20 mM Tris pH 7.4, 0.1% NP40; WB with anti-CNOT4; only the target purified
T6 sequence (peptide, R578 asymmetrically dimethylated (R_(ME2A)); biotin at the N-terminus as printed): LLYRDRDRDLYPDSDWV

binding [1]: binds
binding [2]: binds
binding [3]: binds
Molecule: SF3B1, endogenous in MEG-01 cells (from UniProt O75533 1-1304)

binding [4]: no binding
binding [5]: binds
B1: HA-tagged CNOT4, expressed in 293T cells (enzyme, UniProt O95628 1-575)
chain: MSRSPDAKEDPVECPLCMEPLEIDDINFFPCTCGYQICRFCWHRIRTDENGLCPACRKPYPEDPAVYKPLSQEELQRIKNEKKQKQNERKQKISENRKHLASVRVVQKNLVFVVGLSQRLADPEVLKRPEYFGKFGKIHKVVINNSTSYAGSQGPSASAYVTYIRSEDALRAIQCVNNVVVDGRTLKASLGTTKYCSYFLKNMQCPKPDCMYLHELGDEAASFTKEEMQAGKHQEYEQKLLQELYKLNPNFLQLSTGSVDKNKNKVTPLQRYDTPIDKPSDSLSIGNGDNSQQISNSDTPSPPPGLSKSNPVIPISSSNHSARSPFEGAVTESQSLFSDNFRHPNPIPSGLPPFPSSPQTSSDWPTAPEPQSLFTSETIPVSSSTDWQAAFGFGSSKQPEDDLGFDPFDVTRKALADLIEKELSVQDQPSLSPTSLQNSSSHTTTAKGPGSGFLHPAAATNANSLNSTFSVLPQRFPQFQQHRAVYNSFSFPGQAARYPWMAFPRNSIMHLNHTANPTSNSNFLDLNLPPQHNTGLGGIPVAGEEEVKVSTMPLSTSSHSLQQGQQPTSLHTTVA

binding [6]: binds
B2: CNOT4, endogenous in MEG-01 whole cell extract (enzyme, UniProt O95628 1-575)
chain: B1 chain

Reference: publication PMC4775220
